# Reference: the supplement of paper PMC8728848
# This is one part of the list.
# Legend:
# Assay in all cases: glycan array binding signal (z-score within array); higher = stronger binding
# Conditions in all cases: glycan notation: IUPAC condensed, linker removed
# [1] = target: Fuc(a1-2)Gal6S(b1-3)GlcNAc
# Method in brief: (§1)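 Columns mapping to the same glycan were averaged after glycan names were converted to IUPAC-condensed notation. The data come from 3228 arrays in the Consortium for Functional Glycomics database, limited to those with an available protein sequence. Binding is reported as a within-array Z-score averaged across arrays of one protein sequence and across linkers.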
# [2] = target: Fuc(a1-2)Gal6S(b1-3)GlcNAc6S
# Method in brief: as §1
# [3] = target: Fuc(a1-2)Gal6S(b1-4)Glc
# Method in brief: as §1
# [4] = target: Fuc(a1-2)Gal6S(b1-4)Glc6S
# Method in brief: as §1
# [5] = target: Fuc(a1-2)[Gal(a1-3)]Gal
# Method in brief: as §1
# [6] = target: Fuc(a1-2)[Gal(a1-3)]Gal(b1-3)GalNAc
# Method in brief: as §1
# [7] = target: Fuc(a1-2)[Gal(a1-3)]Gal(b1-3)GalNAc(b1-3)Gal(a1-4)Gal(b1-4)Glc
# Method in brief: as §1
# [8] = target: Fuc(a1-2)[Gal(a1-3)]Gal(b1-3)GlcNAc
# Method in brief: as §1
# [9] = target: Fuc(a1-2)[Gal(a1-3)]Gal(b1-3)GlcNAc(b1-2)Man(a1-3)[Fuc(a1-2)[Gal(a1-3)]Gal(b1-3)GlcNAc(b1-2)Man(a1-6)]Man(b1-4)GlcNAc(b1-4)GlcNAc
# Method in brief: as §1
# [10] = target: Fuc(a1-2)[Gal(a1-3)]Gal(b1-3)GlcNAc(b1-2)Man(a1-3)[Fuc(a1-2)[Gal(a1-3)]Gal(b1-3)GlcNAc(b1-2)Man(a1-6)]Man(b1-4)GlcNAc(b1-4)[Fuc(a1-6)]GlcNAc
# Method in brief: as §1
# [11] = target: Fuc(a1-2)[Gal(a1-3)]Gal(b1-3)GlcNAc(b1-3)GalNAc
# Method in brief: as §1
# [12] = target: Fuc(a1-2)[Gal(a1-3)]Gal(b1-3)GlcNAc(b1-6)GalNAc
# Method in brief: as §1
# [13] = target: Fuc(a1-2)[Gal(a1-3)]Gal(b1-4)Glc
# Method in brief: as §1
# [14] = target: Fuc(a1-2)[Gal(a1-3)]Gal(b1-4)GlcNAc
# Method in brief: as §1
# [15] = target: Fuc(a1-2)[Gal(a1-3)]Gal(b1-4)GlcNAc(b1-2)Man
# Method in brief: as §1
# [16] = target: Fuc(a1-2)[Gal(a1-3)]Gal(b1-4)GlcNAc(b1-2)Man(a1-3)[Fuc(a1-2)[Gal(a1-3)]Gal(b1-4)GlcNAc(b1-2)Man(a1-6)]Man(b1-4)GlcNAc(b1-4)GlcNAc
# Method in brief: as §1
# [17] = target: Fuc(a1-2)[Gal(a1-3)]Gal(b1-4)GlcNAc(b1-2)Man(a1-3)[Fuc(a1-2)[Gal(a1-3)]Gal(b1-4)GlcNAc(b1-2)Man(a1-6)]Man(b1-4)GlcNAc(b1-4)[Fuc(a1-6)]GlcNAc
# Method in brief: as §1
# [18] = target: Fuc(a1-2)[Gal(a1-3)]Gal(b1-4)GlcNAc(b1-3)GalNAc
# Method in brief: as §1
# [19] = target: Fuc(a1-2)[Gal(a1-3)]Gal(b1-4)GlcNAc(b1-3)[Fuc(a1-2)[Gal(a1-3)]Gal(b1-4)GlcNAc(b1-6)]GalNAc
# Method in brief: as §1
# [20] = target: Fuc(a1-2)[Gal(a1-3)]Gal(b1-4)GlcNAc(b1-6)GalNAc
# Method in brief: as §1
# [21] = target: Fuc(a1-2)[Gal(a1-3)]Gal(b1-4)[Fuc(a1-3)]Glc
# Method in brief: as §1
# [22] = target: Fuc(a1-2)[Gal(a1-3)]Gal(b1-4)[Fuc(a1-3)]GlcNAc
# Method in brief: as §1
# [23] = target: Fuc(a1-2)[Gal(a1-3)]Gal(b1-4)[Fuc(a1-3)]GlcNAc(b1-3)GalNAc
# Method in brief: as §1
# [24] = target: Fuc(a1-2)[Gal(a1-4)]Gal(b1-4)GlcNAc
# Method in brief: as §1
# [25] = target: Fuc(a1-2)[GalNAc(a1-3)]Gal
# Method in brief: as §1
# [26] = target: Fuc(a1-2)[GalNAc(a1-3)]Gal(b1-3)GalNAc(a1-3)[Fuc(a1-2)]Gal(b1-4)GlcNAc
# Method in brief: as §1
# [27] = target: Fuc(a1-2)[GalNAc(a1-3)]Gal(b1-3)GalNAc(b1-3)Gal(a1-4)Gal(b1-4)Glc
# Method in brief: as §1
# [28] = target: Fuc(a1-2)[GalNAc(a1-3)]Gal(b1-3)GlcNAc
# Method in brief: as §1
# [29] = target: Fuc(a1-2)[GalNAc(a1-3)]Gal(b1-3)GlcNAc(b1-2)Man(a1-3)[Fuc(a1-2)[GalNAc(a1-3)]Gal(b1-3)GlcNAc(b1-2)Man(a1-6)]Man(b1-4)GlcNAc(b1-4)GlcNAc
# Method in brief: as §1
# [30] = target: Fuc(a1-2)[GalNAc(a1-3)]Gal(b1-3)GlcNAc(b1-2)Man(a1-3)[Fuc(a1-2)[GalNAc(a1-3)]Gal(b1-3)GlcNAc(b1-2)Man(a1-6)]Man(b1-4)GlcNAc(b1-4)[Fuc(a1-6)]GlcNAc
# Method in brief: as §1
# [31] = target: Fuc(a1-2)[GalNAc(a1-3)]Gal(b1-3)GlcNAc(b1-3)GalNAc
# Method in brief: as §1
# [32] = target: Fuc(a1-2)[GalNAc(a1-3)]Gal(b1-3)GlcNAc(b1-6)GalNAc
# Method in brief: as §1
# [33] = target: Fuc(a1-2)[GalNAc(a1-3)]Gal(b1-4)Glc
# Method in brief: as §1
# [34] = target: Fuc(a1-2)[GalNAc(a1-3)]Gal(b1-4)GlcNAc
# Method in brief: as §1
# [35] = target: Fuc(a1-2)[GalNAc(a1-3)]Gal(b1-4)GlcNAc(b1-2)Man
# Method in brief: as §1
# [36] = target: Fuc(a1-2)[GalNAc(a1-3)]Gal(b1-4)GlcNAc(b1-2)Man(a1-3)[Fuc(a1-2)[GalNAc(a1-3)]Gal(b1-4)GlcNAc(b1-2)Man(a1-6)]Man(b1-4)GlcNAc(b1-4)GlcNAc
# Method in brief: as §1
# [37] = target: Fuc(a1-2)[GalNAc(a1-3)]Gal(b1-4)GlcNAc(b1-2)Man(a1-3)[Fuc(a1-2)[GalNAc(a1-3)]Gal(b1-4)GlcNAc(b1-2)Man(a1-6)]Man(b1-4)GlcNAc(b1-4)[Fuc(a1-6)]GlcNAc
# Method in brief: as §1
# [38] = target: Fuc(a1-2)[GalNAc(a1-3)]Gal(b1-4)GlcNAc(b1-3)Gal(b1-4)GlcNAc
# Method in brief: as §1
# [39] = target: Fuc(a1-2)[GalNAc(a1-3)]Gal(b1-4)GlcNAc(b1-3)Gal(b1-4)GlcNAc(b1-3)Gal(b1-4)GlcNAc
# Method in brief: as §1
# [40] = target: Fuc(a1-2)[GalNAc(a1-3)]Gal(b1-4)GlcNAc(b1-3)GalNAc
# Method in brief: as §1
# [41] = target: Fuc(a1-2)[GalNAc(a1-3)]Gal(b1-4)GlcNAc(b1-3)[Fuc(a1-2)[GalNAc(a1-3)]Gal(b1-4)GlcNAc(b1-6)]GalNAc
# Method in brief: as §1
# [42] = target: Fuc(a1-2)[GalNAc(a1-3)]Gal(b1-4)GlcNAc(b1-6)GalNAc
# Method in brief: as §1
# [43] = target: Fuc(a1-2)[GalNAc(a1-3)]Gal(b1-4)[Fuc(a1-3)]GlcNAc
# Method in brief: as §1
# [44] = target: Fuc(a1-2)[GalNAc(a1-3)]Gal(b1-4)[Fuc(a1-3)]GlcNAc(b1-3)GalNAc
# Method in brief: as §1
# [45] = target: Fuc(a1-2)[GalNAc(a1-4)]Gal(b1-4)GlcNAc
# Method in brief: as §1
binder,measurement,setting,value
"CGL (Crenomytilus grayanus), H2FH31 (protein) MTTFLIKHKASGKFLHPYGGSSNPANNTKLVLHSDIHERMYFQFDVVDERWGYIKHVASGKIVHPYGGQANPPNETNMVLHQDRHDRALFAMDFFNDNIMHKGGKYIHPKGGSPNPPNNTETVIHGDKHAAMEFIFVSPKNKDKRVLVYA",glycan array binding signal (z-score),[1],-0.334
same,glycan array binding signal (z-score),[2],-0.374
same,glycan array binding signal (z-score),[3],-0.392
same,glycan array binding signal (z-score),[4],-0.4
same,glycan array binding signal (z-score),[5],-0.126
same,glycan array binding signal (z-score),[6],-0.282
same,glycan array binding signal (z-score),[7],-0.379
same,glycan array binding signal (z-score),[8],-0.362
same,glycan array binding signal (z-score),[9],-0.328
same,glycan array binding signal (z-score),[10],-0.386
same,glycan array binding signal (z-score),[11],-0.364
same,glycan array binding signal (z-score),[12],-0.361
same,glycan array binding signal (z-score),[13],-0.298
same,glycan array binding signal (z-score),[14],-0.063
same,glycan array binding signal (z-score),[15],-0.384
same,glycan array binding signal (z-score),[16],-0.308
same,glycan array binding signal (z-score),[17],-0.343
same,glycan array binding signal (z-score),[18],-0.376
same,glycan array binding signal (z-score),[19],-0.269
same,glycan array binding signal (z-score),[20],-0.315
same,glycan array binding signal (z-score),[21],-0.375
same,glycan array binding signal (z-score),[22],-0.338
same,glycan array binding signal (z-score),[23],-0.441
same,glycan array binding signal (z-score),[24],4.38
same,glycan array binding signal (z-score),[25],-0.106
same,glycan array binding signal (z-score),[26],-0.359
same,glycan array binding signal (z-score),[27],-0.338
same,glycan array binding signal (z-score),[28],-0.318
same,glycan array binding signal (z-score),[29],-0.367
same,glycan array binding signal (z-score),[30],-0.343
same,glycan array binding signal (z-score),[31],-0.28
same,glycan array binding signal (z-score),[32],-0.464
same,glycan array binding signal (z-score),[33],-0.38
same,glycan array binding signal (z-score),[34],-0.37
same,glycan array binding signal (z-score),[35],-0.438
same,glycan array binding signal (z-score),[36],-0.344
same,glycan array binding signal (z-score),[37],-0.23
same,glycan array binding signal (z-score),[38],-0.355
same,glycan array binding signal (z-score),[39],-0.18
same,glycan array binding signal (z-score),[40],-0.417
same,glycan array binding signal (z-score),[41],-0.249
same,glycan array binding signal (z-score),[42],-0.096
same,glycan array binding signal (z-score),[43],-0.326
same,glycan array binding signal (z-score),[44],-0.217
same,glycan array binding signal (z-score),[45],1.82
